Data taken from patent US20240182596A1, “ANTI-NAPI2B ANTIBODIES AND ANTIBODY-DRUG-CONJUGATES BASED THEREON, THERAPEUTIC METHODS AND USES THEREOF” (Tubulis GmbH, priority 2022, published 2024).

B1: AV25: humanized anti-NaPi2b IgG1 antibody, light chain SEQ ID NO: 6, heavy chain SEQ ID NO: 7, Fc-silenced (LALA) (antibody)
heavy: EVQLVQSGAEVVKPGASVKMSCKASGYTFTGYIIHWVKQAPGQGLEWIGAIYPGSGATSYKQKFRGRATLTADTSTSTVYMELSSLRSEDSAVYYCARGETARATFAYWGQGTLVTVSS[human IgG1 constant region with changes skipped]
light: DIQMTQSPSSLSASVGDRVTITCSASQDIGNFLNWYQQKPGKTVKVLIYYASSLYSGVPSRFSGSGSGTDYTLTISSLQPEDFATYYCQQYSKLPLTFGQGTKLELKRTVAAPSVFIFPPSDEQLKSGTASVVCLLNNFYPREAKVQWKVDNALQSGNSQESVTEQDSKDSTYSLSSTLTLSKADYEKHKVYACEVTHQGLSSPVTKSFNRGEC
modifications: Heavy chain without a signal seqeunce; Light chain without a signal seqeunce
B2: AV25-P5(PEG24)-VC-PAB-Exatecan DAR 8: AV25 antibody conjugated to P5(PEG24)-VC-PAB-Exatecan, DAR8 (conjugate)
heavy: EVQLVQSGAEVVKPGASVKMSCKASGYTFTGYIIHWVKQAPGQGLEWIGAIYPGSGATSYKQKFRGRATLTADTSTSTVYMELSSLRSEDSAVYYCARGETARATFAYWGQGTLVTVSS[human IgG1 constant region with changes skipped]
light: B1 light

Key:
[1] = target: T1, HEK293 cells expressing human Napi2a (SLC34A1) (Homo sapiens, UniProt Q06495); assay: Binding to human NaPi2a evaluated by flow cytometry; conditions: 0.002 to 200 nM
T1 construct: expressed in transfected cells; host or cells: HEK293
T1 sequence (Q06495 1-639): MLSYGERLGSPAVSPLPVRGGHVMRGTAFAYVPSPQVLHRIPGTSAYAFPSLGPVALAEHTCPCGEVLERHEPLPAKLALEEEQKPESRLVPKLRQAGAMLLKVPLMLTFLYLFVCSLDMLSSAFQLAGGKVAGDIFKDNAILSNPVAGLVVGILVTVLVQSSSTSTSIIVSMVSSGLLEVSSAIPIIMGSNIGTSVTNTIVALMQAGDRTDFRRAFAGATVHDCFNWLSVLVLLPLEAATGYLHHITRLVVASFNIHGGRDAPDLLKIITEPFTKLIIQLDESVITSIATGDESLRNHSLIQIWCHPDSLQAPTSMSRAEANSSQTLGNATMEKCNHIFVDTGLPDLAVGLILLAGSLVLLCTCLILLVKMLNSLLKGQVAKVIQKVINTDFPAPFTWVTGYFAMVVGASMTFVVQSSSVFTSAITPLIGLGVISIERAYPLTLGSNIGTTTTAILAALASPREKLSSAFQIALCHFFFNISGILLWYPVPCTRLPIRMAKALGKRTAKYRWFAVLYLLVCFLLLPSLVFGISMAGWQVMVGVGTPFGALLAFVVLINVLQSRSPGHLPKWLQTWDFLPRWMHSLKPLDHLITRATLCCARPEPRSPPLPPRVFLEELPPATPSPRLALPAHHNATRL
Method: To determine concentration-dependent binding, HEK293 cells transiently or stably expressing human Napi2a-, Napi2b- and Napi2c-mCherry were incubated with antibodies or ADCs in concentrations ranging from 0.002 to 200 nM, stained with an Alexa-dye-labeled anti-human IgG H+L secondary antibody (Thermo Fisher Scientific), and analyzed by flow cytometry. Mean fluorescence intensity (MFI) ratios were normalized to the non-specific binding control. The assay was performed in duplicates and data points were analyzed by a non-linear regression using a one-site specific binding model using Prism 9 software.

[2] = In vivo toxicity in cynomolgus monkeys
Method: Toxicology studies were performed in cynomolgus monkeys.

[3] = system: Lu7700 non-small cell lung cancer (NSCLC) model; assay: Dose response PDX study Lu7700; format: in vivo, NMRI nu/nu mice; conditions: 5, 3 or 1 mg/kg once at day 0, i.v.
[4] = 5, 3 and 1 mg/kg, total and intact ADC
Method: All animal experiments were conducted in accordance with German animal welfare law and approved by local authorities. […] Treatment was initiated when tumours reached a mean tumour volume of 0.1-0.15 cm^3. […] Tumour volumes, body weights and general health conditions were recorded throughout the whole study.

[5] = system: patient derived tumor models (lung, endometrial and ovarian cancer); assay: In vivo efficacy in patient derived xenograft models (PDX), 10 mg/kg; set-up: species or system NMRI nu/nu mice; conditions: 10 mg/kg once at day 0, i.v.
[6] = system: 0v6668 ovarian cancer model; assay: Dose response PDX study Ov6668 (efficacy, bodyweight); format: in vivo, NMRI nu/nu mice; conditions: for Tumor response: single injection
OVCAR-3 cells = assay: In vivo efficacy in cell line derived xenograft model (CDX); set-up: species or system CB17-Scid mice
Method: In brief, 1×10^7 OVCAR-3 cells (100 μL+100 μL Matrigel) were subcutaneously injected to CB17-Scid mice.

[7] = 0.2 mg/ml in at least 80% serum of different species, 37° C., up to 7 days
Method: Samples for day 0 were directly processed further.
Afterwards, the supernatant was removed and the resin washed 2 times with 1 mL PBS-T. Following by incubation for 15 minutes with 10 μl 100 mM Glycin buffer pH 2.5 at room temperature. This solution was rebuffered to PBS by using 75 μL Zeba™ Spin Desalting Columns with 7K MWCO (Thermo Fisher Scientific, USA). The samples were processed further for MS-measurements, as described above. The Drug-to-Antibody ratio (DAR) was calculated from the MS intensities of the light chain adducts conjugated to 0 or 1 and heavy chain adducts conjugated to 0-3 molecules of P5(PEG24)-VC-PAB-Exatecan.

target-negative cells = assay: In vitro cytotoxicity via resazurin assay on target-negative cells; format: cell-based; conditions: 7 days, 0-12 μg/ml
[8] = system: patient-derived ovarian cancer xenograft models; assay: PDX studies (10 mg/kg) in patient-derived ovarian cancer xenograft models; format: in vivo, NMRI nu/nu mice; conditions: single 10 mg/kg dose; incl. BRCA-mutated and low Napi2b expression models
From the text: The PDX experiments have been performed as described in example 2.

Molecule	Binding (MFI ratio) [1]	Changes in body weight, clinical chemistry, hematology and histopathology ([2]; 10 and 20 mg/kg i.v. on days 1 and 22)	HNSTD compared to doses explored in toxicology studies with other NaPi2B-targeting ADCs ([2]; cynomolgus monkey, in vivo)	HNSTD (highest nonseverely toxic dose) ([2]; i.v. on days 1 and 22, necropsy day 43)	Efficacy compared to vehicle control [3]	PK exposure profiles and stability of the ADC [4]	Efficacy compared to vehicle control [5]	Bodyweight ([6]; 5, 3 and 1 mg/kg once at day 0)	Tumor response ([6]; 1 mg/kg)	Tumor response ([6]; 5 and 3 mg/kg)	Tumor relapse (OVCAR-3 cells; single dose as low as 1 mg/kg, until end of observation period)	Tumor response (OVCAR-3 cells; single i.v. injection, all dose levels 1, 3 and 5 mg/kg)	Change in Drug-to-Antibody Ratio (DAR) / payload loss in serum [7]	Unspecific toxicity (target-negative cells)	Efficacy compared to vehicle control [8]
B1	but not Napi2a	–	–	–	–	–	–	–	–	–	–	–	–	–	–
B2	–	No severe changes	at least 6 times	at least 20 mg/kg	highest and long-lasting efficacy	dose proportional exposure profiles and high stability	very high and long-lasting efficacy	No reduction in bodyweight	strong tumor regression which was followed by partial tumor re-growth after day 40	Complete tumor remission	does not show any tumor relapse	Complete tumor remission	No change in the Drug-to-Antibody Ratio (DAR)	No unspecific toxicity	very high and long-lasting efficacy
